The record followed here is the BET-seq Pho4 binding data (Le et al. 2018).

Some of the results follow. Values were computed here from the reads of four pooled replicates and scatter widely.

This assay deals with T1, Pho4 (S. cerevisiae) (UniProt P07270).
T1 sequence: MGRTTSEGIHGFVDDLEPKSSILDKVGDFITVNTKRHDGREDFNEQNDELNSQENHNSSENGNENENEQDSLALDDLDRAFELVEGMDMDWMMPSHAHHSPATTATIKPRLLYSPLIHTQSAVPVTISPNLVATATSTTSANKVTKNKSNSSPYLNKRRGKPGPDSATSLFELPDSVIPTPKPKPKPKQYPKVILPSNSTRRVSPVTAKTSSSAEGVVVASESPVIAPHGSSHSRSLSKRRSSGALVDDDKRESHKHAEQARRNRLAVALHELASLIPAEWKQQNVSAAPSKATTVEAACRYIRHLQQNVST
The assay can be described thus: relative binding free energy (BET-seq); higher = weaker binding. The settings on record: reference: library average.
For the sequence GAGTTCACGTGATGGG, the “relative binding free energy” value is 0.54 kcal/mol.

For TGTGTCACGTGCGTGC, the “relative binding free energy” value is -0.07 kcal/mol.

As to GTAGTCACGTGTATAT, the “relative binding free energy” value amounted to 0.21 kcal/mol.

On to GAGTTCACGTGGATGG, for which the “relative binding free energy” value came to 0.35 kcal/mol.

Turning to CGTGACACGTGGAGGG, the “relative binding free energy” value was -0.06 kcal/mol.

Take TGATGCACGTGCAGGT: the “relative binding free energy” value was -0.09 kcal/mol.

TGCGTCACGTGCTGGG: the “relative binding free energy” value was 0.08 kcal/mol.

For the sequence TGTATCACGTGTTCAA, the “relative binding free energy” value amounted to 0.08 kcal/mol.

On to CGATGCACGTGGGTTG, for which the “relative binding free energy” value was -0.26 kcal/mol.

For CGGAGCACGTGTCTGG, the “relative binding free energy” value came to 0.05 kcal/mol.

As to TAGAACACGTGTGGCG, the “relative binding free energy” value was 0.06 kcal/mol.

For the sequence TTGAGCACGTGGCTAA, the “relative binding free energy” value was -0.12 kcal/mol.

As to ATAGTCACGTGTTTAT, the “relative binding free energy” value came to 0.15 kcal/mol.

Take GGGCTCACGTGGGCAG: the “relative binding free energy” value is -0.02 kcal/mol.

Turning to ATGAGCACGTGAGAAG, the “relative binding free energy” value was 0.23 kcal/mol.

As to GACTTCACGTGGCTTG, the “relative binding free energy” value amounted to 0.53 kcal/mol.

For the sequence CTGAACACGTGAGGGG, the “relative binding free energy” value worked out at 0.22 kcal/mol.

With AATGACACGTGAGGAT, the “relative binding free energy” value was determined as 0.25 kcal/mol.

As to TGTTGCACGTGTAGCA, the “relative binding free energy” value was determined as 0.07 kcal/mol.

On to GTCGTCACGTGTGCAG, for which the “relative binding free energy” value was determined as 0.24 kcal/mol.

Regarding AGTGACACGTGAGGTT, the “relative binding free energy” value is 0.24 kcal/mol.

For the sequence GTTGGCACGTGAGGGC, the “relative binding free energy” value is 0.23 kcal/mol.

For the sequence ATTTACACGTGGTGGG, the “relative binding free energy” value was determined as 0.08 kcal/mol.

For the sequence GGGTGCACGTGTAAAA, the “relative binding free energy” value is 0.21 kcal/mol.

Turning to TTGAGCACGTGGGAAG, the “relative binding free energy” value is -0.08 kcal/mol.

As to TAGAACACGTGGTAGT, the “relative binding free energy” value was 0.09 kcal/mol.

Take GGTGGCACGTGCGGGG: the “relative binding free energy” value is -0.05 kcal/mol.

TTTGCCACGTGTTTTA: the “relative binding free energy” value was -0.11 kcal/mol.

Take TGCGGCACGTGGCAGG: the “relative binding free energy” value is -0.17 kcal/mol.

On to GTAGACACGTGTGAGT, for which the “relative binding free energy” value amounted to 0.15 kcal/mol.

For CGGCTCACGTGGGTTC, the “relative binding free energy” value stood at 0.27 kcal/mol.

CTGCGCACGTGGCGGT: the “relative binding free energy” value was -0.23 kcal/mol.

As to AAAGTCACGTGTATAG, the “relative binding free energy” value is 0.08 kcal/mol.

Take CGATTCACGTGGCGTT: the “relative binding free energy” value turned out to be 0.14 kcal/mol.

ATTTGCACGTGAATAG: the “relative binding free energy” value was 0.31 kcal/mol.

Take GGTAACACGTGGGCGT: the “relative binding free energy” value is -0.08 kcal/mol.

With GTCCGCACGTGAGGTG, the “relative binding free energy” value amounted to 0.15 kcal/mol.

Regarding ATCTTCACGTGTCTGT, the “relative binding free energy” value came out at 0.39 kcal/mol.

For the sequence GGATACACGTGTATTA, the “relative binding free energy” value is 0.06 kcal/mol.

In the case of TTGTGCACGTGGGTTT, the “relative binding free energy” value is -0.11 kcal/mol.

For ATTGTCACGTGACGGT, the “relative binding free energy” value amounted to 0.19 kcal/mol.

For the sequence AGAATCACGTGGTTTA, the “relative binding free energy” value was found to be 0.37 kcal/mol.

Turning to TGTAACACGTGTTGGT, the “relative binding free energy” value worked out at 0.07 kcal/mol.

On to TGGCACACGTGAGGGG, for which the “relative binding free energy” value was 0.27 kcal/mol.

As for TGAGGCACGTGGAGCC, the “relative binding free energy” value is 0 kcal/mol.

AATGGCACGTGGAAAG: the “relative binding free energy” value was -0.07 kcal/mol.

Turning to GAGTTCACGTGGCAGG, the “relative binding free energy” value worked out at 0.27 kcal/mol.

With GGGCACACGTGGGGGC, the “relative binding free energy” value was -0.04 kcal/mol.

Consider GGTGTCACGTGATGGA, for which the “relative binding free energy” value is 0.35 kcal/mol.

For the sequence TGGGTCACGTGGGAAA, the “relative binding free energy” value was 0.1 kcal/mol.

As to GATGGCACGTGGTTAG, the “relative binding free energy” value was -0.04 kcal/mol.

As to GAGGGCACGTGTAACG, the “relative binding free energy” value was determined as 0.09 kcal/mol.

With GGGCTCACGTGGAGGC, the “relative binding free energy” value worked out at 0.17 kcal/mol.

Regarding CGCGGCACGTGTTGTT, the “relative binding free energy” value was -0.07 kcal/mol.

Consider TGTTGCACGTGCTTAT, for which the “relative binding free energy” value is -0.09 kcal/mol.

Consider TGGCGCACGTGTGTGC, for which the “relative binding free energy” value was 0.02 kcal/mol.

Turning to ATAATCACGTGAGTTA, the “relative binding free energy” value is 0.22 kcal/mol.

As to GATGGCACGTGTCGCT, the “relative binding free energy” value stood at 0.02 kcal/mol.

Regarding ATTGACACGTGTGTAA, the “relative binding free energy” value came out at 0 kcal/mol.

On to CTTCACACGTGTGGGT, for which the “relative binding free energy” value is 0.22 kcal/mol.

For GGCTTCACGTGCAGTT, the “relative binding free energy” value was determined as 0.26 kcal/mol.

For TGGGACACGTGAGGGC, the “relative binding free energy” value came out at 0.3 kcal/mol.

Turning to TATTGCACGTGGGCGG, the “relative binding free energy” value was -0.14 kcal/mol.
